PubChem BioAssay AID463173 (ICCB-Longwood Screening Facility, Harvard Medical School, 2010)
Out of some 52,000 compounds screened, about 4,300 (8.3%) were called active. No stated cut-off is given here; in the data, active means survival mostly below about 52% (no sharp cut-off); inactive means mostly above about 56%. Some of the results follow.

The molecules below were run on DeltatarO mutant (assay: growth inhibition of S. aureus wild type versus tarO mutant, primary screen, teichoic acid synthesis inhibitors, RN4220, OD600 (AID 463173)). Conditions: OD600, 18 h, hits give low values, screened at 18.75 µg/mL (by protocol).

Structure (SMILES) | survival
NC(=O)c1ccccc1NC(=O)c1ccc(-c2ccc(Br)cc2)o1 | inactive: 77%
COC(=O)c1cc(S(=O)(=O)N2CCN(c3cccc(C)c3)C(C)C2)cn1C (configuration not stated) | inactive: 92%
O=C(NCCN1CCOCC1)c1ccncc1 | inactive: 96%
COc1ccc(-n2nc(C(=O)Nc3cccc(C(F)(F)F)c3)c3c4ccccc4n(C)c3c2=O)cc1 | inactive: 78%
Cc1nn(CC(=O)NCc2ccccc2Cl)c(=O)c2nn(-c3ccccc3)c(C)c12 | inactive: 124%
Cc1ccccc1NC(=O)CSC1=Nc2ccccc2C2=NC(CCC(=O)NCc3ccccc3)C(=O)N12 (configuration not stated) | inactive: 89%
Cc1nc(CC(=O)Nc2ccc(N(C)C)cc2)cs1 | active: 45%
CCOc1ccc(-c2nc(SCC(=O)NCCOC)c(-c3ccc(OC)c(OC)c3)[nH]2)cc1 | inactive: 76%
CCc1ccc(-n2nc(C)c3c(C(=O)Nc4cc(OC)cc(OC)c4)cc(C)nc32)cc1 | inactive: 102%
COc1ccc(CNC(=O)Cn2c(SCC(=O)Nc3ccc(C)c(C)c3)nc3ccccc32)cc1 | inactive: 68%
CSc1nc2sc3c(c2c(=O)n1-c1ccc(F)c(Cl)c1)CCN(C(C)=O)C3 | inactive: 71%
Cc1cc(C)cc(NC(=O)CSc2nc(-c3cccc(Cl)c3)nc3c2Cc2c(CO)cnc(C)c2O3)c1 | inactive: 125%
CCOC(=O)NC1(C(F)(F)F)NC(=O)N(c2ccc(C)c(C)c2)C1=O (configuration not stated) | inactive: 79%
O=C(CSC1=Nc2ccccc2C2=NC(Cc3ccccc3)C(=O)N12)Nc1ccccc1F (configuration not stated) | inactive: 79%
Cc1cc(C)cc(OCC(=O)Nc2ccc(S(=O)(=O)Nc3onc(C)c3C)cc2)c1 | inactive: 67%
CCC(C(=O)NC1CCCC1)N(Cc1ccc2c(c1)OCO2)C(=O)c1snc(C(N)=O)c1N (configuration not stated) | inactive: 93%
COc1ccc(S(=O)(=O)NCCc2csc(-c3ccc(F)cc3)n2)cc1 | inactive: 97%
NNC(=O)c1nsnc1-c1ccccc1O | inactive: 73%
CN1C(=O)C(C)(C)c2cc(S(=O)(=O)NCc3ccc(C(=O)Nc4ccc(Cl)cc4)cc3)ccc21 | inactive: 64%
Cc1cccc(NC(=O)N2CCC(CN3CCc4ccccc4C3)CC2)c1C | active: -2%
Cc1ccccc1-c1nnc(SCC(=O)Oc2c(C)cccc2C)o1 | inactive: 99%
Cc1cc(C)cc(N2C(=O)N(CC(=O)c3ccc(Br)cc3)c3ccccc3S2(=O)=O)c1 | inactive: 75%

Structure (SMILES) | survival
COc1ccccc1CNC(=O)CN1C(=O)COc2ccc(S(=O)(=O)N3CCCCC3)cc21 | inactive: 60%
O=S(=O)(NCc1cccc(Br)c1)c1ccc(-c2cc(C(F)(F)F)on2)s1 | inactive: 54%
CCN(CC)C(=O)c1sc2c(c1C)c(=O)n(-c1ccc(Cl)c(Cl)c1)c(=O)n2Cc1cc(=O)n2c(C)cccc2n1 | active: 32%
COC(=O)CN1C(=O)CSc2ccc(S(=O)(=O)N3CCOCC3)cc21 | inactive: 118%
Cc1ccc(N2C(=O)C3C4C=CC(CNC(=O)OCc5ccccc5)(O4)C3C2=O)cc1 (configuration not stated) | inactive: 95%
COC(=O)c1sccc1S(=O)(=O)N(CC(=O)NCc1ccc(C)cc1)c1ccc(Cl)cc1 | inactive: 87%
COc1ccc(C(=O)Nc2ccc3nc(SCC(=O)N4CCCc5ccccc54)sc3c2)cc1 | inactive: 99%
CCCCn1cc(S(=O)(=O)c2ccc(OC)cc2)c(=O)c2cc(F)c(N3CCCC3)cc21 | inactive: 87%
Cc1ccc(-c2nc(C)c(CCNS(=O)(=O)c3ccccc3F)s2)cc1 | inactive: 76%
COc1ccc(CCNC(=O)CCCn2c(=O)c3ccccc3n(Cc3ccccc3C)c2=O)cc1OC | inactive: 85%
Cc1ccc(-n2ncc(C(=O)NCCN3CCc4ccccc4C3)c2C2CCN(C(=O)OC(C)(C)C)CC2)cc1 | inactive: 83%
Cc1cccc(C)c1OCc1nc2c3cnn(-c4cccc(F)c4)c3ncn2n1 | inactive: 78%
CCOC(=O)c1cc(S(=O)(=O)N2CCN(c3ccc(OC)cc3)CC2)[nH]n1 | inactive: 128%
Cc1ccc(NC(=O)CSc2nncn2N)cc1C | inactive: 108%
COCCN(Cc1cc2cc(C)c(C)cc2nc1Cl)C(C)=O | inactive: 62%
Cc1ccc(C(=O)Nc2c(C(=O)NCc3ccc(Cl)cc3)sc3nc(C)cc(C)c23)cc1 | inactive: 59%
CCC(C)(C)n1nnnc1CN(Cc1ccccc1)Cc1cc2cc(OC)ccc2[nH]c1=O | inactive: 91%
CCOC(=O)c1cccc(NC(=O)CN2C(=O)CC(C)(C)Sc3ccccc32)c1 | inactive: 94%
CCN(C(=O)c1oc2ccc(S(=O)(=O)N3CCCCCC3)cc2c1C)c1ccccc1 | inactive: 124%
O=C1C(=O)N(C2CCN(S(=O)(=O)c3ccc(F)cc3)CC2)CCN1Cc1ccccc1 | inactive: 120%
COc1ccc(Cl)cc1NC(=O)CSc1nccn1Cc1ccco1 | inactive: 92%
CN(CC(=O)Nc1cccc(C(F)(F)F)c1)S(=O)(=O)c1ccc2[nH]c3c(c2c1)CCCC3 | inactive: 94%

Structure (SMILES) | survival
CCc1ccc(CN2C(=O)c3ccccc3C2C(=O)NCCc2ccc(OC)c(OC)c2)cc1 (configuration not stated) | inactive: 75%
Cc1csc2nc(COC(=O)c3ccccc3NC(=O)c3ccc(F)cc3)cc(=O)n12 | inactive: 55%
COc1ccc(NC(=O)c2cc3c(=O)[nH]c4ccccc4c3n2C)cc1Cl | inactive: 81%
O=C(CN1CCOCC1)Nc1ccc(Cl)c(NC(=O)c2ccc(Cl)cc2)c1 | inactive: 95%
NC(=O)CSc1nnc(-c2ccccc2)n1-c1ccccc1 | inactive: 98%
CCCN(C(=O)CCc1nc(-c2ccccc2F)no1)c1ccc(CC)cc1 | active: -7%
Cc1ccccc1NC(=O)c1sc2nc3c(cc2c1N)CCCC3 | inactive: 64%
CCOc1cc2[nH]c(=O)n(Cc3ccc(C(=O)NCCN(CC)CC)cc3)c(=O)c2cc1OCC | inactive: 67%
Cc1ccc(C)c(N2CCN(C(=O)c3ccc(CS(=O)(=O)c4ccc(Br)cc4)o3)CC2)c1 | inactive: 119%
COc1ccc(CC(=O)NCc2nc3cccnc3n2Cc2ccc(F)cc2)cc1OC | inactive: 102%
Cc1ccc(CNC(=O)c2c3c(nc4ccccc24)C(=O)N(C2CCCCC2)C3)cc1 | inactive: 91%
CCCCn1c2ccc(F)cc2c2nnc(SCCN(CC)CC)nc21 | inactive: 178%
COc1cccc(N2CCN(C3C(=O)c4ccccc4N3C(C)=O)CC2)c1 (configuration not stated) | inactive: 95%
COc1cccc(C2C(C(=O)Nc3ccc(C)cc3C)=C(C)Nc3c(C(=O)Nc4cccc(C)c4)cnn32)c1OC (configuration not stated) | inactive: 94%
CCOc1ccc(OCC)c(NC(=O)CN(C)S(=O)(=O)c2ccc3c(c2)CCCC(=O)N3)c1 | inactive: 90%
CC(Sc1nnc(-c2ccccc2)n1N)C(=O)O (configuration not stated) | inactive: 113%
Cc1cccc(OCC(=O)N(Cc2sccc2C)C2CCS(=O)(=O)C2)c1 (configuration not stated) | inactive: 77%
COc1ccc(N2CCN(C(=O)c3ccc(-c4nc(COc5ccccc5)c(C)o4)cc3)CC2)cc1 | inactive: 71%
COc1ccccc1/C=C/c1nc(C#N)c(N(C)C)o1 | inactive: 86%
O=C(c1cc2ncc(Br)cn2n1)N1CCCCC1 | inactive: 64%
Cc1c2cnn(CC(=O)Nc3cccc(C(F)(F)F)c3)c(=O)c2c(C)n1Cc1ccccc1Cl | inactive: 71%
O=C1CC(Sc2ncccc2C(=O)O)C(=O)N1 (configuration not stated) | inactive: 95%

Structure (SMILES) | survival
CCOC(=O)N1CCc2c(sc3c2c(=O)n(-c2ccc(CC)cc2)c(=O)n3CC(=O)c2ccc(F)cc2)C1 | inactive: 80%
COc1cc(C(=O)Nc2ccc3nc(SCc4ccccc4)sc3c2)cc(OC)c1OC | inactive: 80%
Cc1ccc(C(=O)NCC(c2cccs2)S(=O)(=O)c2cccs2)cc1 (configuration not stated) | inactive: 79%
CCC(Sc1nncn2c1cc1occc12)C(=O)Nc1ccc(C)c(Cl)c1 (configuration not stated) | active: 36%
CCN(C(=O)CSc1nc2ccccc2n1Cc1cc(C)ccc1C)c1ccccc1 | inactive: 81%
Cc1c2cnn(CC(=O)NC(C)C)c(=O)c2c(C)n1Cc1ccccc1Cl | inactive: 84%
CC(C)(C)OC(=O)N1CCC(c2c(C(=O)N3CCc4ccccc4C3)cnn2-c2ccc(F)cc2)CC1 | inactive: 87%
Cc1ccccc1OCCn1c(CCNC(=O)C(C)(C)C)nc2ccccc21 | inactive: 82%
CC1=C(c2ccc(C)c(C)c2)S(=O)(=O)N=C1N1CCC(C(=O)NCc2ccc(C)o2)CC1 | inactive: 86%
CC(NC(=O)CCCn1c(=O)c2cccn2c2cccnc21)c1ccccc1 (configuration not stated) | inactive: 93%
CCOc1cc(-n2cnnn2)c(OCC)cc1NC(=O)c1cc2cccc(OC)c2oc1=O | inactive: 81%
CCc1ccc(CNC(=O)c2ccc(-c3nc(CS(=O)(=O)c4ccccc4)c(C)o3)cc2)cc1 | inactive: 54%
COc1cc2c(cc1OC)C(C)N(C(=O)CN1CCOCC1)CC2 (configuration not stated) | inactive: 88%
Cc1coc2c(C)c3oc(=O)c(CCC(=O)NCCc4ccc(Cl)cc4)c(C)c3cc12 | inactive: 58%
COc1ccc(N2CCN(C(=O)c3nc(SC)ncc3Cl)CC2)cc1 | inactive: 78%
COC(=O)C1(C)NC(c2ccc(OC)cc2)C2C(=O)N(c3ccccc3)C(=O)C21 (configuration not stated) | inactive: 80%
CC(C)OC(=O)CN1C(=O)C(C)(C)Oc2ccc(C(=O)Nc3ccccc3)cc21 | inactive: 98%
Cc1cc(F)ccc1NCc1ccccc1-c1nnc(-c2ccccc2Cl)o1 | inactive: 84%
O=C(NCC(c1cccnc1)N1CCc2ccccc21)c1cccc(C(F)(F)F)c1 (configuration not stated) | active: 45%
CCCNC(=O)CSc1nc2nc(C)c(Cc3ccccc3Cl)c(C)n2n1 | inactive: 60%
Cc1ccc(-c2noc(-c3nnn(CC(=O)Nc4cc(C)cc(C)c4)c3N)n2)cc1 | inactive: 115%
